Consider 129 sequences from the supplement of paper PMC3334620.

In all, about 33,000 sequences were measured (“E-score (-0.5 to 0.5)”: median about -0.035, highest 2% from about 0.34 on). Some of the results follow.

The target of this assay is T1, Mot3 (UniProt P54785).
T1 sequence: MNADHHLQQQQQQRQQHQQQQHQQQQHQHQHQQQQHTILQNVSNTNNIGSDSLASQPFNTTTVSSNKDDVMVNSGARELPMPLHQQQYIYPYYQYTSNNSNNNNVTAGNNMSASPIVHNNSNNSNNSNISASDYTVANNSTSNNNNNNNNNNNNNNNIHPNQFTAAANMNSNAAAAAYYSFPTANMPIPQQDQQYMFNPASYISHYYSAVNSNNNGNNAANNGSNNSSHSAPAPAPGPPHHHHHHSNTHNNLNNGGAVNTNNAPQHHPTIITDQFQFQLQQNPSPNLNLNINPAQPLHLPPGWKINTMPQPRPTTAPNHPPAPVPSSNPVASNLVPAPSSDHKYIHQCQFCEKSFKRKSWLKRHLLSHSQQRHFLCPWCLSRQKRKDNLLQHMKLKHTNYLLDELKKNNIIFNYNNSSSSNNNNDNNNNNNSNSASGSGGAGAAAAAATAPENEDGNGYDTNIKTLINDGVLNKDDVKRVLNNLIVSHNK
In words: PBM E-score (8-mer binding enrichment) (E-score (-0.5 to 0.5)); higher = stronger / more preferred TF binding; most listed sequences are background and not binding sites. The settings on record: protein concentration: 200 nM; construct: GST-full length. Summed up: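 Yeast transcription factors carrying a GST tag, as full-length proteins or DNA-binding domains, were produced by PURExpress in vitro transcription/translation. About 100-200 nM protein was applied to universal all-10-mer Agilent arrays, double-stranded by primer extension on fresh or once-stripped slides. Bound protein was detected with fluorescent anti-GST, and scans were normalised with masliner. The Universal PBM Analysis Suite gave each ungapped eight-base word, pooled with its reverse complement, an E-score, a modified Wilcoxon-Mann-Whitney statistic.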
In the case of ACTTGTAT, the “PBM E-score” value was 0.173.
For the sequence GGGCAACC, the “PBM E-score” value was -0.175.
As to ACACTATG, the “PBM E-score” value turned out to be 0.0427.
Turning to ATCAATCC, the “PBM E-score” value is -0.105.
In the case of ACGAGGTA, the “PBM E-score” value is -0.00321.
The result for AAATATTA reads 0.234.
As to CCGTCGAA, the “PBM E-score” value is -0.24.
Regarding ATAGTCCA, the “PBM E-score” value was -0.206.
The result for AGCATCAG reads -0.172; that for CCCCATAG, -0.123.
For GTGGACAC, the “PBM E-score” value is -0.0127.
Take CCGATTGC: the “PBM E-score” value stood at 0.123.
The result for CATATTTC reads 0.0175.
Consider CGTTCCCA, for which the “PBM E-score” value was -0.192.
On to CAACAATG, for which the “PBM E-score” value was 0.199.
Turning to GGGGTGAC, the “PBM E-score” value was -0.0631.
As for CTGAGTTC, the “PBM E-score” value worked out at 0.0849.
As to CTCACTCC, the “PBM E-score” value was -0.225.
Consider CTAAGTCC, for which the “PBM E-score” value was -0.191.
The result for GCACGCGA reads 0.0082; that for CCGCAAAC, -0.0792.
Turning to TACCCAAA, the “PBM E-score” value was 0.11.
In the case of CTGTTCTC it was 0.0137; in that of CGCGAACC, 0.0234; in that of ATTCCTGC, -0.0225.
In the case of CGACAAAG it was 0.0929; in that of AAGTTTTC, 0.0147; in that of GCAAACAC, 0.117.
The result for CAAATCTA reads 0.0716; that for GAGTCTCC, -0.362; that for CCCTCGGC, -0.272.
Take CAGAACGC: the “PBM E-score” value is -0.136.
In the case of GAACCCGA it was -0.0111; in that of AAAAGAAA, 0.129; in that of GAATGAAC, 0.0408.
In the case of AGGTAACA it was 0.357.
In the case of GCAATCCC it was -0.257; in that of AAGCAGCG, 0.136.
With ACAGTCGA, the “PBM E-score” value was -0.188.
Take GCACTACC: the “PBM E-score” value was -0.156.
For ATAAGACA, the “PBM E-score” value was 0.0934.
Take TGGGAACA: the “PBM E-score” value was -0.0762.
In the case of CAACTTCA it was 0.0337; in that of AAAGGGCA, 0.041; in that of AGTTCTGA, -0.093.
Regarding CGCGTATC, the “PBM E-score” value was 0.171.
The result for AGGTAATC reads 0.344; that for ATTCCGGG, -0.188.
In the case of AGCCCACG it was -0.19; in that of ACAACAGC, 0.0671; in that of CTGCTTAC, -0.00061.
The result for GTGTCTAA reads 0.21; that for ACGACTTG, 0.00588.
With AAAGTCCT, the “PBM E-score” value is -0.197.
For the sequence ACGCAAAG, the “PBM E-score” value was determined as 0.046.
In the case of AACGTGGA it was 0.00783.
In the case of CGACGATA it was -0.00683; in that of AAATGCAA, 0.00481; in that of AGACGAAG, -0.0234.
The result for GTCCTATA reads -0.0781; that for CATGAAGA, -0.0437.
In the case of AAGGGAGT, the “PBM E-score” value was -0.193.
Consider ATACCCCA, for which the “PBM E-score” value was -0.0898.
As for CTTTCTAA, the “PBM E-score” value came to 0.0987.
As for ACTTACTA, the “PBM E-score” value worked out at 0.0175.
With CGACTCAG, the “PBM E-score” value is -0.219.
In the case of AAATCCCT it was -0.0149; in that of ACCCCACC, -0.228; in that of CAAGATCA, 0.0168.
Consider AGGATCAA, for which the “PBM E-score” value came to 0.0224.
In the case of ATAATCTG, the “PBM E-score” value worked out at 0.0266.
For the sequence AATACGAC, the “PBM E-score” value worked out at 0.0314.
The result for AACATTCA reads 0.0411; that for GGCGGCCC, -0.295; that for CCATTAGG, -0.0478.
The result for GTCGTTGA reads 0.0555; that for CGAACGAG, -0.0675; that for CGAGAGAG, -0.145.
Take CCGGATAC: the “PBM E-score” value is -0.1.
With AATACATC, the “PBM E-score” value was 0.238.
With GGCCATAA, the “PBM E-score” value is -0.215.
The result for AGCGGCTC reads -0.26; that for AATCTGGA, -0.0335.
With CGGACCGA, the “PBM E-score” value is -0.122.
Regarding CCTTAAAC, the “PBM E-score” value came out at 0.0953.
The result for CATTATTA reads 0.0961; that for ACCTCGAG, -0.129.
Take CACCGCGG: the “PBM E-score” value is -0.204.
On to ACCTCACA, for which the “PBM E-score” value is -0.0606.
Consider CCTATGAA, for which the “PBM E-score” value is 0.00027.
On to GGATACAA, for which the “PBM E-score” value amounted to 0.262.
In the case of CAGCCCCA it was -0.0937; in that of GCAAGGTA, 0.249; in that of CAAAGGCG, 0.233.
Take ATTGTGAA: the “PBM E-score” value was determined as 0.133.
As for AGACATTA, the “PBM E-score” value was 0.183.
The result for GAGTCTCA reads -0.29; that for TGGGGACA, -0.0418.
The result for CTATGGCC reads -0.231; that for TCCATAGA, -0.2; that for GTACACTA, 0.138.
The result for CCTGCCGA reads -0.175; that for ATGCCAAG, -0.0387.
Regarding CCAACTCG, the “PBM E-score” value amounted to 0.0438.
The result for ACGGGTTA reads -0.11; that for CCCGAGGC, -0.207; that for CGTTGTCC, -0.0232.
In the case of ACACACCC it was 0.25.
In the case of TGGATAAA it was -0.0834; in that of ACGTATCC, -0.129; in that of CCCTGGAA, -0.297.
Consider AGCACGGA, for which the “PBM E-score” value came out at 0.102.
Consider TCACAAAA, for which the “PBM E-score” value stood at 0.0788.
As to CTTGTGTC, the “PBM E-score” value stood at 0.11.
The result for CCCGGGAC reads -0.237.
For AGAAGACC, the “PBM E-score” value was -0.114.
For the sequence CACATGGC, the “PBM E-score” value is -0.0654.
Regarding GATTAAAA, the “PBM E-score” value amounted to 0.0197.
The result for CCGCGTGC reads 0.0666; that for CATACCAC, -0.015.
For AGGTTCAT, the “PBM E-score” value was -0.0206.
In the case of CGTAACTC it was 0.0184; in that of AGCTATCC, -0.0683.
The result for TAGTGTGA reads -0.0628.
The result for AGTCGCGA reads -0.17; that for AAGTTACA, 0.29; that for CTACACGC, 0.356.
ACAAATGG: the “PBM E-score” value was found to be 0.126.
Consider CTGTACTA, for which the “PBM E-score” value was found to be 0.0598.
